From the supplement of paper PMC7125110
± gives the standard error. Variants at the background level are over-represented here.

B1: glmS ribozyme (parent)
chain: AUAAAAGCGCCAGAACUACAGAAAUGUAGUUGACGAGGAGGAGGUUUAUCGAAUUUUCGGCGGAUGCCUCCAAA

How the values were obtained:
Conditions in all cases: with glucosamine-6-phosphate
glucosamine-6-phosphate [1] = variants of: B1; assay: self-cleavage kobs at 640 uM GlcN6P; higher = faster cleavage; RNA array
Outline: (§1)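 Glucosamine-6-phosphate, from 40 μM to 10 mM in HEPES/KCl/Mg(OAc)2 buffer, was flowed over sequenced MiSeq chips carrying barcoded ribozyme variants transcribed in situ by E. coli RNA polymerase. A hybridised Cy3 probe tracked the variants at 37 °C as tiles were imaged over ~14 h. kobs, kcat and KM were obtained by fitting normalised per-tile medians to exponential decays and then applying weighted Michaelis–Menten fits across concentrations.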

glucosamine-6-phosphate [2] = variants of: B1; assay: self-cleavage kobs at 160 uM GlcN6P; higher = faster cleavage; RNA array
Outline: as §1

glucosamine-6-phosphate [3] = variants of: B1; assay: self-cleavage kobs at 2500 uM GlcN6P; higher = faster cleavage; RNA array
Outline: as §1

glucosamine-6-phosphate [4] = variants of: B1; assay: self-cleavage kobs at 10000 uM GlcN6P; higher = faster cleavage; RNA array
Outline: as §1

| Variant | self-cleavage kobs at 640 uM GlcN6P (glucosamine-6-phosphate [1]) [s⁻¹] | self-cleavage kobs at 160 uM GlcN6P (glucosamine-6-phosphate [2]) [s⁻¹] | self-cleavage kobs at 2500 uM GlcN6P (glucosamine-6-phosphate [3]) [s⁻¹] | self-cleavage kobs at 10000 uM GlcN6P (glucosamine-6-phosphate [4]) [s⁻¹] |
| --- | --- | --- | --- | --- |
| AUAAAAGCGCCAGAACUACAGAAAUGUAAUUGACGAGGAGGAGGUGUAUCGAAUUUUCGGCGGAUGCCUCCAAA [G29A U46G] | 0.000243 ± 4.1e-05 | 5.62e-05 ± 1.3e-05 | 0.000425 ± 7.7e-05 | 0.00128 ± 0.00027 |
| AUAAAAGCGCCAGAACUACAGAAAUGUAAUUGACGAGGCGGACGUUUAUCGAAUUUCCGGCGGAUGCCUCCAAA [G29A A39C G43C U57C] | < 1e-05 |  |  |  |
| AUAAAAGCGCCAGAACUACAGAAAUGUACUUGACGCGGAGGAGGGUUAUCGAAUUUUCGGCGGAUUCCUCCAAA [G29C A36C U45G G66U] | < 1e-05 |  |  |  |
| AUAAAAGCGCCAGAACUACAGAAAUGUACUUGACGAGCAGCAGGUUUAUCGAAUUUUCGGCGGAUGCCUCCAAA [G29C G38C G41C] | < 1e-05 |  |  |  |
| AUAAAAGCGCCAGAACUACAGAAAUGUAAUUGACGAGGAGGAAGUUUAUCGAAUUAUCGGCGGAUGCCUCCAAA [G29A G43A U56A] | < 1e-05 |  |  |  |
| AUAAAAGCGCCAGAACUACAGAAAUGUACGUGACGAGGAGGAGGUUUAUCGAAUUUUCGGCGGAUGCCUUCAAA [G29C U30G C70U] | 0.000861 ± 0.00017 |  |  |  |
| AUAAAAGCGCCAGAACUACAGAAAUGUACUUGACUAGGUGGAGGUUUAUCGAAUUUUCGGCGGAUGCCUCCAAA [G29C G35U A39U] | < 1e-05 |  |  |  |
| AUAAAAGCGCCAGAACUACAGAAAUGUACUUGACGAGGCGGAGAUUUAUCGAUUUUUCGGCGGAUGCCUCCAAA [G29C A39C G44A A53U] | < 1e-05 | < 1e-05 |  |  |
| AUAAAAGCGCCAGAACUACAUAAAUUUAGUUGACGAGGAGGAGGUUUAUCGAAUUUUCGGCGGAGUCCGCCAAA [G21U G26U U65G G66U U69G] | 0.000207 ± 8.9e-05 |  |  |  |
| AUAAAAGCGCCAGAACUACAGAAAUGUAAUUCACGAGGAGGAGGUUUAUCGAAUUUUCGGUGGAUGCCUCCAAA [G29A G32C C61U] | < 1e-05 |  |  |  |
| AUAAAAGCGCCAGAACUACAGAAAUGUAAUUAACGAGGAGGAGGUUUAUCGAAUUUUCGGCGGAUGCCUCAAAA [G29A G32A C71A] | 6.03e-05 ± 2.6e-05 |  |  | 0.000201 ± 4.4e-05 |
| AUAAAAGCGCCAGAACUACAGAAAUGUACUUGACGAGGAGGAGGUUUAUCGAAUUUGCGGCGGAUGCCUCCAAA [G29C U57G] | < 1e-05 |  |  |  |
| AUAAAAGCGCCAGAACUAAAGAAAUGUAGUUGACUAGGAGGAGGUUUAUCGAAUUUUCGGCGGAUGCCUCCAAA [C19A G35U] | < 1e-05 |  | < 1e-05 |  |
| AUAAAAGCGCCAGAACUACAGAAAUGUAAUUGACGAGGAGGAGGUUUAUCCAAUUUUCGGCGGAUGCCUCCAAA [G29A G51C] | < 1e-05 | < 1e-05 | < 1e-05 | < 1e-05 |
| AUAAAAGCGCCAGAACUACAGAAAUGUACUUGACGAGGAGGAGGUUUAUCGAAUUUUCGGCGGAGGCCUCCAAA [G29C U65G] | 0.000115 ± 2.7e-05 |  | 0.000279 ± 7.3e-05 | 0.000591 ± 0.00015 |
| AUAAAAGCGCCAGAACUACAGAAAUGUACUUGACGAGGAGGAGGUUUAUCGAAUUUUCGGCGGAUGCCUCGAAA [G29C C71G] | 3.96e-05 ± 1.4e-05 | 5.06e-05 ± 1.3e-05 | 8.9e-05 ± 1.2e-05 | 8.49e-05 ± 1e-05 |
| AUAAAAGCGCCAGAACUACAGAAAUGUACUUGGCGAGGCGGAGGUUUAUCGAAUAUUCGUCGGAUGCCUCCAAA [G29C A33G A39C U55A G60U] | < 1e-05 |  | < 1e-05 |  |
| AUAAAAGCGCCAGAACUACAGAAAUGUAAUUGACGAGGAGGAGGUUUAUCGCAUUUGCGGCGGGUGCCUCAAAA [G29A A52C U57G A64G C71A] | < 1e-05 |  |  |  |
| AUAAAAGCGCCAGAACUACAGAAAUGUACUUGACGAGGAGGAGGUUUACCGAAUUUUCGGCGGAUGCCUCCAAA [G29C U49C] | < 1e-05 |  | < 1e-05 | < 1e-05 |
| AUAAAAGCGCCAGAACUACAGAAAUGUACUUGACGAGGAGGAGAUUUAUCGAAUUUUCGACGGGUGCCUCCAAA [G29C G44A G60A A64G] | < 1e-05 | < 1e-05 |  |  |
